# Laboratory results published in PubChem BioAssay (NCATS).
# The shares of active, inactive and inconclusive entries below differ from those in the screen. For part of these data: Potencies beside an inconclusive call are fits to weak or partial responses and may not hold up. Calls of active or inactive are those of the source. Unless noted, the call rests on the fitted dose curve; in most records, active means well fitted curve in the direction sought with a large enough effect; inconclusive means small, poorly fitted or top-dose-only effect, or another doubt; inactive means no such curve, though single readings can be large; an effect the other way counts as inactive or inconclusive.
# Key:
# [1] = qHTS of pediatric cancer cell lines to identify multiple opportunities for drug repurposing: Primary screen for DAOY cells (AID 1347090); settings: DAOY medulloblastoma viability, CellTiter-Glo luminescence, 48 h; activity change, negative = cytotoxic: at 46 µM (top of the series); further: nearly all actives have a fitted effect of over 55% in size; further: potency means the concentration at half of the fitted maximal effect
# In short: (§1)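 Eight- or eleven-point concentration series, 48 h treatment at 37 degrees C in growth media; readout CellTiter-Glo luminescence. Potency and efficacy were taken from the concentration-response curves.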
# [2] = qHTS of pediatric cancer cell lines to identify multiple opportunities for drug repurposing: Primary screen for SJ-GBM2 cells (AID 1347091); further: potency means the concentration at half of the fitted maximal effect
# In short: as §1
# [3] = qHTS of pediatric cancer cell lines to identify multiple opportunities for drug repurposing: Primary screen for NB-EBc1 cells (AID 1347095); further: potency means the concentration at half of the fitted maximal effect
# In short: (§2)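 500-1,000 cells/well; 5 h pre-incubation 37 °C/5% CO2; compound pinned; 48 h; CellTiter-Glo, 15 min RT; luminescence. MIPE 11-pt from 0.78 nM, NPC 8-pt from 0.59 nM final. Bortezomib 2.3 µM final as positive control.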
# [4] = qHTS of pediatric cancer cell lines to identify multiple opportunities for drug repurposing: Primary screen for Rh41 cells (AID 1347108); further: nearly all actives have a fitted effect of over 70% in size; further: potency means the concentration at half of the fitted maximal effect;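 on activity change, negative = cytotoxic: luminescence drop marks cytotoxic hits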
# In short: as §2
# [5] = target: Calcium and integrin-binding protein 1 (Homo sapiens) (UniProt Q99828); test: Primary qHTS for Identification of Calcium Integrin Binding Protein 1 (CIB1) Competitor (AID 1508620); further: potency means the concentration at half of the fitted maximal effect
# Sequence of UniProt Q99828 (Q99828 whole entry, looked up): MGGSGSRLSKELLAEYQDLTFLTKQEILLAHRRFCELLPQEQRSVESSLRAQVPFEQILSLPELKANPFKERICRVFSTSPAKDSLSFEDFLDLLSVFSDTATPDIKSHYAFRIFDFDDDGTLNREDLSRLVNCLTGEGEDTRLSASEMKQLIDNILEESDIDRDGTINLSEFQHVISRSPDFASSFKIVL
# In short: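 Fluorescence polarization competition: CIB1-GST (1 uM final) preincubated with compound 15 min at room temperature, then FITC-labeled alphaIIb peptide (100 nM final) added for another 15 min. Polarization read at Ex 480/Em 540.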
# [6] = Primary qHTS for small molecule stabilizers of the endoplasmic reticulum resident proteome: Secreted ER Calcium Modulated Protein (SERCaMP) assay (AID 1508630); settings: SH-SY5Y GLuc-SERCaMP (Gaussia luciferase released on ER calcium loss) secretion, thapsigargin, luminescence; activity change, negative = inhibition: at 38.4 µM (top of the series); further: potency means the concentration at half of the fitted maximal effect
# In short: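 The SH-SY5Y reporter protocol was run at 3 concentrations up to 38.3 uM (primary) or 11 concentrations (follow-up): 16 h compound, 100 nM thapsigargin for 4 h, then extracellular luciferase luminescence.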
# [7] = target: Cytochrome P450 2C9 (Homo sapiens) (UniProt P11712); test: Cytochrome P450 family 2 subfamily C member 9 (CYP2C9) small molecule antagonists: luciferase biochemical (cell-free) qHTS assay (AID 1645842; active means well fitted curve in the direction sought with a large enough effect in the repeat runs; inconclusive means weak or mixed curves; inactive means no such curve, though single readings can be large; an effect the other way counts as inactive or inconclusive; further: nearly all actives have a fitted effect of over 55% in size; further: potency means the concentration at half of the fitted maximal effect)
# Sequence of UniProt P11712 (P11712 whole entry, looked up): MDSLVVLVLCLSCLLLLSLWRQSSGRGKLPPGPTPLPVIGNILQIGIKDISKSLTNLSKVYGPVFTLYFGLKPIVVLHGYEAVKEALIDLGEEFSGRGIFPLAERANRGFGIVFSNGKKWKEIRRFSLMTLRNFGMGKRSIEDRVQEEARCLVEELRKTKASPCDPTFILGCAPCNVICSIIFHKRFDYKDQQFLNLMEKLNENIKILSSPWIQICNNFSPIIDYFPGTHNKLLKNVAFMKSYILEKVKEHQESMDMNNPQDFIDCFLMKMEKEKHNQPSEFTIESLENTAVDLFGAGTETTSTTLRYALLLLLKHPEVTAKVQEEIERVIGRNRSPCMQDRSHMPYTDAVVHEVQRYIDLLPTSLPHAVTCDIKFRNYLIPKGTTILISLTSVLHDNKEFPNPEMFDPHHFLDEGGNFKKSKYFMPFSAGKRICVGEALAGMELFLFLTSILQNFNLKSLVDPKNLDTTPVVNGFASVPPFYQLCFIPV
# In short: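 P450-Glo CYP2C9 system: proluciferin substrate with enzyme in mix containing 0.4% BSA, 10 min at room temperature, then NADPH regeneration solution added and incubated 1 h at 37C. Detection reagent stopped reaction; luminescence read after 20 min as RLU.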
# [8] = qHTS of pediatric cancer cell lines to identify multiple opportunities for drug repurposing: Primary screen for SK-N-MC cells (AID 1347093); settings: SK-N-MC viability, CellTiter-Glo luminescence, 48 h; activity change, negative = cytotoxic: at 46 µM (top of the series); further: potency means the concentration at half of the fitted maximal effect
# In short: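 Metabolically active cells were quantified by ATP-dependent luminescence (CellTiter-Glo, 15 min at room temperature) following 48 h treatment. Cells had been plated at 500-1,000 per well and settled for 5 h beforehand.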
# [9] = qHTS of pediatric cancer cell lines to identify multiple opportunities for drug repurposing: Primary screen for BT-12 cells (AID 1347101); further: potency means the concentration at half of the fitted maximal effect; nearly all actives have a fitted effect of over 25% in size
# In short: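 Cells (500-1,000/well) rested 5 h, then received compounds for 48 h; metabolically active cells were measured by CellTiter-Glo luminescence. Final concentrations spanned up to 46 µM (MIPE, 11-point) or 0.59 nM-46 µM (NPC, 8-point) in primary screens, 11-point in follow-ups.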
# [10] = test system: Zika virus NS2B-NS3 protease (linked construct); test: Primary screen NINDS Rhodamine qHTS for Zika virus inhibitors (AID 1347160); further: potency means the concentration at half of the fitted maximal effect; nearly all actives have a fitted effect of over 55% in size
# In short: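 Aprotinin served as in-plate control. Conditions: 25 nM linked NS2B-NS3, pH 8.0 Tris buffer, titrated compounds, 15 min preincubation and 15 min reaction with 1.5 microM Rhod110 substrate at room temperature.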
# [11] = qHTS to identify inhibitors of the type 1 interferon - major histocompatibility complex class I in skeletal muscle: primary screen against the NCATS Mechanism Interrogation Plate v5.0 (MIPE) Libary (AID 1347411); settings: iHSKM cells + IFN-b, HiBiT-tagged MHC-I luminescence, 24 h; activity change, negative = inhibition: at 45.8 µM (top of the series); further: nearly all actives have a fitted effect of over 65% in size; further: potency means the concentration at half of the fitted maximal effect
# In short: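 Luminescence from CRISPR HiBit-tagged endogenous HLA-B in human myoblasts reported MHC class I level after 24 h of IFN-beta (4 ng/ml) plus compound. Compounds ran as 11-point 1:3 series, top 46 uM final.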
# [12] = target: Glutathione peroxidase 1 (Homo sapiens) (UniProt P07203); test: Primary qHTS Assay for Inhibitors of Recombinant Selenoprotein Glutathione Peroxidase 1 (GPX1) (AID 1845191); settings: activity, negative = inhibition: at 48.8 µM (top of the series); further: nearly all actives have a fitted effect of over 65% in size; further: potency means the concentration at half of the fitted maximal effect
# Sequence of UniProt P07203 (P07203 whole entry, looked up): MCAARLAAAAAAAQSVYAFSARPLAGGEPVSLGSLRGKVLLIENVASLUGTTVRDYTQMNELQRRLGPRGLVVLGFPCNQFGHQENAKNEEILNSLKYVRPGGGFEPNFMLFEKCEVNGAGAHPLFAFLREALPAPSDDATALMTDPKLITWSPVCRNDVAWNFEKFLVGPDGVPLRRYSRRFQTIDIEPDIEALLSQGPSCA
# In short: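 GPX1 10 nM, GR 100 nM, GSH 1 mM, NADPH 0.5 mM, CHP 0.5 mM (final). 30-min cpd preincubation, RT. Ex340/Em450 read t=0, t=15 min.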
# [13] = target: Phospholipid hydroperoxide glutathione peroxidase GPX4 (Homo sapiens) (UniProt P36969); test: Primary qHTS Assay for Inhibitors of Recombinant Selenoprotein Glutathione Peroxidase 4 (GPX4) (AID 1845192); further: potency means the concentration at half of the fitted maximal effect; nearly all actives have a fitted effect of over 65% in size
# Sequence of UniProt P36969 (P36969 whole entry, looked up): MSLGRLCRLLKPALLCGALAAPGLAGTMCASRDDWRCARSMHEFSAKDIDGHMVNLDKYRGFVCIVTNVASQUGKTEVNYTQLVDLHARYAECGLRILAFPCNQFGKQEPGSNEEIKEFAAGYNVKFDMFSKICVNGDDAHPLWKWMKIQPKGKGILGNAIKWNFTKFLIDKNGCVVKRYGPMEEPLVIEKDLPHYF
# In short: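 qHTS, GR-coupled: GPX4 200 nM + cpd 30 min RT → GSH 1 mM, NADPH 0.5 mM, GR 100 nM → CHP 0.5 mM start; fluor 340/450 at t0 and t15 min; no-enzyme wells as control.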
# [14] = Primary redox qHTS assay for identification of artifact compounds. (AID 1845223); further: potency means the concentration at half of the fitted maximal effect
# In short: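 Redox-cycling detection via DTT (250 uM final) oxidation coupled to Amplex Red (25 uM)/HRP (250 mU/mL) in HBSS. 15 min preincubation plus 30 min after DTT, room temperature. Ex/Em 525/598 nm; 4-parameter Hill fit against DMSO and 10 uM DA3003.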
# [15] = test system: Es-2; test: Primary qHTS to identify gynecologic anti-cancer compounds using libraries of approved drugs and bioactive compounds (AID 1345084); settings: Gynecologic cancer cell panel viability, ATPlite luminescence, 48 h; series mostly up to 57.5 µM; further: potency means the concentration at half of the fitted maximal effect; nearly all actives have a fitted effect of over 55% in size
# In short: (§3)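 ATP-based viability (ATPlite), 1,000 cells/well, 16 h pre-incubation, 48 h compound at 37 C, 5% CO2, 15 min RT before read.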
# [16] = test system: JEG-3; test: as above; settings: Gynecologic cancer cell panel viability, ATPlite luminescence, 48 h; series mostly up to 57.5 µM
# In short: as §3
# [17] = target: Cytochrome P450 3A4 (Homo sapiens) (UniProt P08684); test: Cytochrome P450 family 3 subfamily A member 4 (CYP3A4) small molecule antagonists: luciferase qHTS assay (AID 1645841; active means well fitted curve in the direction sought with a large enough effect in the repeat runs; inconclusive means weak or mixed curves; inactive means no such curve, though single readings can be large; an effect the other way counts as inactive or inconclusive; further: nearly all actives have a fitted effect of over 45% in size)
# Sequence of UniProt P08684 (P08684 whole entry, looked up): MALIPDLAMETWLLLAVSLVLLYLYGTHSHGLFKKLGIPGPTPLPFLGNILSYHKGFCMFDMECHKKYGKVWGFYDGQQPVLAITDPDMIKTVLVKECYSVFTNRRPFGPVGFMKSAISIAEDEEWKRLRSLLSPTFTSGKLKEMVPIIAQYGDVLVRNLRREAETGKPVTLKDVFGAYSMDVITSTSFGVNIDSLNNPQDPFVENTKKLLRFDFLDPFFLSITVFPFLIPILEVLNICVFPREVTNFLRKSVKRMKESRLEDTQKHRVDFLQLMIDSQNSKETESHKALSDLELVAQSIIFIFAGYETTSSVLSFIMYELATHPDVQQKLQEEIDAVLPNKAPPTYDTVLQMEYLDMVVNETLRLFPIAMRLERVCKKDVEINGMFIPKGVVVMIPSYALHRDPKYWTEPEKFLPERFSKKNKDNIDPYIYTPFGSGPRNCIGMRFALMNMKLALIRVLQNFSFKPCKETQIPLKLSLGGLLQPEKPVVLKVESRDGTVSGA
# In short: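 P450-Glo CYP3A4 enzyme with proluciferin substrate was preincubated with DMSO-dissolved compounds for 10 min at room temperature. NADPH regeneration solution started a 1 h reaction. Detection reagent stopped it, and luminescence was read after 20 min.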
# Tags describe the fitted curve by direction and shape.
compound,measurement,setting,value
CCCC(=O)c1cc(O)c(O)cc1O,Potency,[1],inactive
same,Potency,[2],"inconclusive: 61.1 µM [cytotoxic, single point]"
same,Potency,[3],"inconclusive: 43.3 µM [cytotoxic, single point]"
same,Potency,[4],inactive
same,Potency,[5],active: 112 µM
same,Potency,[6],"inconclusive: 50.1 µM [inhibitor, single point]"
same,Potency,[7],"inconclusive: 28.3 µM [inhibitor, partial curve]"
CC(C)c1cc(C(C)C)c(CC(=O)NS(=O)(=O)Oc2c(C(C)C)cccc2C(C)C)c(C(C)C)c1,Potency,[1],"inconclusive: 23.5 µM [cytotoxic, single point]"
same,Potency,[8],"inconclusive: 18.7 µM [cytotoxic, partial curve, poor fit]"
same,Potency,[9],"inconclusive: 27.3 µM [cytotoxic, partial curve]"
same,Potency,[4],"inconclusive: 20.9 µM [cytotoxic, partial curve]"
same,Potency,[10],active: 3.16 µM
same,Potency,[11],"inconclusive: 4.15 µM [inhibitor, full curve, poor fit]"
same,Potency,[12],"inconclusive: 11.4 µM [inhibitor, partial curve]"
same,Potency,[13],"inconclusive: 6.4 µM [inhibitor, partial curve]"
same,Potency,[14],"inconclusive: 3.77 µM [activator, full curve, poor fit]"
COc1cc2c(cc1OC)[C@@H]1[C@H](O)[C@@H](OC)C=C3CCN(C2)[C@H]31,Potency,[15],"inconclusive: 14.1 µM [cytotoxic, single point]"
CCC(C)CC(=O)OC1C(=O)C(CO)=CC(O)C1C(C)C (centres undefined),Potency,[5],"inconclusive: 56.2 µM [inhibitor, partial curve, poor fit]"
same,Potency,[15],"inconclusive: 31.6 µM [cytotoxic, single point]"
same,Potency,[16],"inconclusive: 31.6 µM [cytotoxic, single point]"
CCCN1CCN(c2ccc(C(=O)NC3(C(=O)NCC#N)CCCCC3)cc2)CC1,Potency,[11],inactive
same,Potency,[14],"inconclusive: 26.7 µM [activator, partial curve, poor fit]"
O=C(NC1CCC1)c1ccc(C#Cc2cccc(F)c2)nc1,Potency,[17],inactive
same,Potency,[7],inactive
CC(C)N(CCCNC(=O)Nc1ccc(C(C)(C)C)cc1)C[C@H]1O[C@@H](n2cc(Br)c3c(N)ncnc32)[C@H](O)[C@@H]1O,Potency,[11],"inconclusive: 41.5 µM [inhibitor, single point]"
same,Potency,[7],"inconclusive: 26.8 µM [inhibitor, single point]"
same,Potency,[14],"inconclusive: 8.44 µM [activator, partial curve, poor fit]"
C=C1/C(=C/C=C2\CCC[C@]3(C)[C@@H]([C@H](C)/C=C/C(=O)C4CC4)CC[C@@H]23)C[C@@H](O)C[C@@H]1O,Potency,[14],"inconclusive: 23.8 µM [activator, single point]"
Cn1c(NC[C@@H](N)Cc2ccccc2)nc(-c2ccncc2)c(-c2ccc3ccccc3c2)c1=O,Potency,[11],"inconclusive: 58.7 µM [inhibitor, single point]"
same,Potency,[7],"inconclusive: 33.8 µM [inhibitor, partial curve, poor fit]"
same,Potency,[14],inactive
CC1CCN(c2cc(NC(=O)c3ccccc3)ncn2)CC1,Potency,[7],active: 9.52 µM
COc1ccc(C#Cc2ccc(C(=O)N3CCC[C@@H](O)C3)c(F)c2)cc1,Potency,[7],"inconclusive: 6.74 µM [inhibitor, partial curve]"
same,Potency,[13],"inconclusive: 4.04 µM [inhibitor, partial curve, poor fit]"
CC1(C(=O)Nc2ccc(F)nc2)CCCN1c1nc(Nc2cc(C3CC3)[nH]n2)c2cccn2n1 (centres undefined),Potency,[7],active: 10.7 µM
same,Potency,[16],"inconclusive: 2 µM [cytotoxic, partial curve, poor fit]"
C=CCC1=C[C@]2(OC)[C@H](C)[C@@H](c3ccc(O)c(OC)c3)O[C@]2(OC)CC1=O,Potency,[14],inactive
CN1CCN(c2ccc(Nc3cc(-c4cccc(-n5ccc6cc(C7CC7)cc(F)c6c5=O)c4CO)cn(C)c3=O)nc2)CC1,Potency,[7],"inconclusive: 19 µM [inhibitor, partial curve]"
same,Potency,[12],inactive
